# Measured values taken from article PMC7819943, “Rice protein-binding microarrays: a tool to detect cis-acting elements near promoter regions in rice”.
# The list shows a part of the results.
# Target: T1, OsWOX13 (Oryza sativa, UniProt Q5QMM3 1-267)
# T1 sequence: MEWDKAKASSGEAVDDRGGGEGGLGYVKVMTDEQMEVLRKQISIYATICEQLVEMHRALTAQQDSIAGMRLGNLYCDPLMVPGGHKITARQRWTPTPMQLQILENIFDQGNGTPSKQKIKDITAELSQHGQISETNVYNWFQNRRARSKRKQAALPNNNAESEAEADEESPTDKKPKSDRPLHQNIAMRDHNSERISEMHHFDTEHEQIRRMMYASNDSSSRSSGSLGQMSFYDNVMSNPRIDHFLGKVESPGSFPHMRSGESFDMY
# Assay: protein-binding microarray (RPBM); PBS, 2% BSA, 51.3 ng/ul salmon testes DNA, 50 uM zinc acetate, 200 nM TF, 25 C, 1 h; high values mean tight binding
# Details: protein: recombinant; tags: N-terminal polyhistidine and DsRed monomer fusion (pET32a); label: CyDye5-dUTP incorporated in the synthesized complementary strand; 3' TTTTT single-stranded linker to array surface; dsDNA, one strand shown
# In short: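 The binding signal for each feature is its fluorescence intensity in arbitrary units. An Axon 4000B scanner was used to read a custom Agilent array that had been made double-stranded with Cy5-dUTP primer extension, blocked with 2% BSA, incubated at 25 °C for 1 h with 200 nM protein in PBS, 2% BSA, salmon testes DNA and 50 µM zinc acetate, and washed. The protein was an N-terminal polyhistidine–DsRed transcription factor fusion from E. coli BL21-CodonPlus, purified on Ni–NTA.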
row,Sequence,binding signal
1,TTGACTTAAATTATAATTTTAAACCATATATTATAATTGGCGGAGTCACCTAGTGCAG,31400 fluorescence intensity (a.u.)
2,TTCAAATCTAGATTTGAAAGTTTCAAAATCTAAGTTGTTTCGGAGTCACCTAGTGCAG,3650 fluorescence intensity (a.u.)
3,AACATACCTCCTATAATTGGATATACTTGGATTCGTAACACGGAGTCACCTAGTGCAG,4970 fluorescence intensity (a.u.)
4,ATAAATTAACTCGGCTAGCTAGCTAGATAGAGCTCACGGCCGGAGTCACCTAGTGCAG,11400 fluorescence intensity (a.u.)
5,TGTGATCGATTGATTGGGACAAAAGTTCATTTTAGAGTGGCGGAGTCACCTAGTGCAG,49800 fluorescence intensity (a.u.)
6,TACTGTAATTACCCAATAACTATATTATAACTGCATTGCACGGAGTCACCTAGTGCAG,29700 fluorescence intensity (a.u.)
7,CCGGTCTATCAATTCCCCTTTCTGATACAATAAAATCTGACGGAGTCACCTAGTGCAG,5080 fluorescence intensity (a.u.)
8,GATGCATATCAATCTAGCATTGCCGGTCAACGTTCTCGAGCGGAGTCACCTAGTGCAG,3360 fluorescence intensity (a.u.)
9,GGGTGACGATTTTGTAATTCGATGACAAGTTGAGGGACCTCGGAGTCACCTAGTGCAG,3580 fluorescence intensity (a.u.)
10,GTTATTGACAGATGGTTTGAAATTATTAGATAACATATGGCGGAGTCACCTAGTGCAG,37300 fluorescence intensity (a.u.)
11,GGCCTAATTGGCCCACACGGGTCAAAGCCCAAATACCACGCGGAGTCACCTAGTGCAG,34200 fluorescence intensity (a.u.)
12,TTCAAACTTTTAATTTTAGTCAAACTTTCAATTTTGGCGTCGGAGTCACCTAGTGCAG,3330 fluorescence intensity (a.u.)
13,GTCAGTTTTAATTATCTACAGTTAAATAGAGAACACGTTCCGGAGTCACCTAGTGCAG,15300 fluorescence intensity (a.u.)
14,TCCCACATTTATATTGATGCATCTAGATTCATTAACATCACGGAGTCACCTAGTGCAG,3680 fluorescence intensity (a.u.)
15,CATTTCATGACTGATTGCAGGTTGGTGCCCATGGCACTGGCGGAGTCACCTAGTGCAG,18500 fluorescence intensity (a.u.)
16,ATGGCTAATTATGGACTAATTAGACTCAAAAGATTCGTTTCGGAGTCACCTAGTGCAG,19800 fluorescence intensity (a.u.)
17,CTAAAATCAATCAACAAGTGCGCGTCTCTGTCGCTGCACTCGGAGTCACCTAGTGCAG,31000 fluorescence intensity (a.u.)
18,TTTGCCTGTTAATTTCAATCTATTTTGTATACTCTCCTCGCGGAGTCACCTAGTGCAG,35500 fluorescence intensity (a.u.)
19,TGTTTAAGTTTGTCCTAATTACCTGTCACATTTTCCGTGCCGGAGTCACCTAGTGCAG,8460 fluorescence intensity (a.u.)
20,AATTAATTTACTTAGTATATTGTATTAAACATATAGGCAACGGAGTCACCTAGTGCAG,13600 fluorescence intensity (a.u.)
21,TGATGATTTATGGACACCTCCAAAGATGAAACTCATTTTCCGGAGTCACCTAGTGCAG,4790 fluorescence intensity (a.u.)

row,Sequence,binding signal
1,TCTAGATTGTAATATTATGGGACGAAGAGAGTAACAAGTCCGGAGTCACCTAGTGCAG,7020 fluorescence intensity (a.u.)
2,CAGAGTAAATTAAACAAGTGACACCCCTATGCGCCTCTACCGGAGTCACCTAGTGCAG,8460 fluorescence intensity (a.u.)
3,TTGTTCCTAAATTGATCATCATATAAGTTTATACACTAAGCGGAGTCACCTAGTGCAG,16900 fluorescence intensity (a.u.)
4,TCTGATAGCGAAGATTCTGGTGATCAATCGGACCACAGCACGGAGTCACCTAGTGCAG,3520 fluorescence intensity (a.u.)
5,AATAAATTGTGTGGAAATTTAGCTTGCCCAATCAGATTGACGGAGTCACCTAGTGCAG,16000 fluorescence intensity (a.u.)
6,CCAAATTGGTTGGAAAATACTCCGTATTGTGTGCTGGCCACGGAGTCACCTAGTGCAG,32800 fluorescence intensity (a.u.)
7,AGAAAATTGAAATGAGAGTTTCAAAGACATTGTACCTTTTCGGAGTCACCTAGTGCAG,6360 fluorescence intensity (a.u.)
8,TAATCTGCTCACCGTTCTGATTGATCCTAGGTGCTGCATGCGGAGTCACCTAGTGCAG,11500 fluorescence intensity (a.u.)
9,AAAATAAATTACCGATTCTATCTATAAACTGCGAGACAAACGGAGTCACCTAGTGCAG,7910 fluorescence intensity (a.u.)
10,GCCCCTGTTGACTGTTGTTCACATCTCTTTCAGATATTTTCGGAGTCACCTAGTGCAG,4760 fluorescence intensity (a.u.)
11,GAAATGAGGGGTGGGATTGGGATTGGGATTGGAAAATGAACGGAGTCACCTAGTGCAG,10500 fluorescence intensity (a.u.)
12,GAAAATGAATTAGGGGCCCTTTGATTAGCAGGATAGAAAACGGAGTCACCTAGTGCAG,5440 fluorescence intensity (a.u.)
13,TCGAGACAAATTAAACTATCTCGCTCTTTGTGATCAGGATCGGAGTCACCTAGTGCAG,8400 fluorescence intensity (a.u.)
14,AACAAAATTTAAATTTTAGAACTCAGTTTCAAGTTGATTTCGGAGTCACCTAGTGCAG,18300 fluorescence intensity (a.u.)
15,AGCTGATAAAATAAATTAAATTACTCCCACCAAGCCAAAACGGAGTCACCTAGTGCAG,13400 fluorescence intensity (a.u.)
16,CTTCGGTTTTCATGCCTAATTATTGATAGGTGGGCCCCACCGGAGTCACCTAGTGCAG,7610 fluorescence intensity (a.u.)
17,AAATGACTAACATTAATTTCTACCACTTTATAGAAGATATCGGAGTCACCTAGTGCAG,6240 fluorescence intensity (a.u.)
18,AATTAATTATTAATATGGGGTGCAGTAAATCACAGGATTACGGAGTCACCTAGTGCAG,33000 fluorescence intensity (a.u.)
19,ACCACCTAATCTAAATTATTATTTAGTCCCTCCTTCCCAACGGAGTCACCTAGTGCAG,10900 fluorescence intensity (a.u.)
20,AGGAAATTAATTATAGAATATATAATTATTGTTACTACCCCGGAGTCACCTAGTGCAG,32700 fluorescence intensity (a.u.)
21,AGATTTGATTAAAATACTTCCTATACATTCATAATACTCTCGGAGTCACCTAGTGCAG,16600 fluorescence intensity (a.u.)
